Results: US20230009608A1, “GRK2 INHIBITORS AND USES THEREOF” (Cygnal Therapeutics, Inc., priority 2020, published 2023)
At least one read-out could not be matched to a standard name with certainty.

test system: PAXF1657 control empty vector cell line; assay: 7-day proliferation assay, PAXF1657 control empty vector cell line (Example 9); format: cell-based; details: Cell Line: PAXF1657 empty vector (EV) cell line
Description: In order to identify compounds specific for GRK2, we generated two isogenic cell line pairs of the pancreatic cancer cell line PAXF1657, a pair of cells stably overexpressing GRK2 cDNA or the control empty vector and a cell line pair of PAXF1657 GRK2 knockout clonal cells versus non-targeting control clonal cells.
Proliferation Assay: Cellular anti-proliferative activity of compounds was assessed by using the pancreatic cancer cell line, PAXF1657, stably overexpressing GRK2 cDNA or the control empty vector, as well as the parental urinary bladder cancer cell line, 5637. In addition, we also took advantage of GRK2 knockout cell lines that were generated via CRISPR. Cell lines were seeded into tissue culture treated, white-walled, 96-well plates at a density of 500 cells/well in RPMI1640 media supplemented with 10% H.I. FBS and penicillin/streptomycin. Plates were incubated overnight at 37° C., 5% CO2 to allow cells to adhere to the wells. GRK2 inhibitors were added to the cells using a 10-point dilution series with a final concentration ranging from 30 μM-0.0002 μM in 0.3% DMSO. At the time of compound addition, a set of plates, that were not treated with compounds, were collected and cell viability was measured using CellTiter-Glo (Promega). CellTiter-Glo reagent was added to the designed plates and luminescence was measuring using a Biotek Synergy plate reader. The compound treated cells were incubated for 3 days at 37° C., 5% CO2. The media was then aspirated from each well and replaced with fresh media containing GRK2 inhibitors. The compound treated cells were then incubated for an additional 4 days at 37° C., 5% CO2. Cell viability was assessed and at end of the 7-day compound treatment by CellTiterGlo.

SMILES	D: 7-day proliferation assay: % Minimum GeoMean (%)
Cc1cccc(CNC(=O)c2cccc(NCc3nnc(-c4ccncn4)n3C)c2)n1	31.8
Cn1c(CNc2cccc(C(=O)NC(C)(C)c3ccncc3)c2)nnc1-c1ccncn1	75.8
CCn1ncc(Cl)c1CNC(=O)c1cccc(NCc2nnc(-c3ccncn3)n2C)c1	93.6
Cn1cc(C(C)(C)NC(=O)c2cccc(NCc3nnc(-c4ccncn4)n3C)c2)cn1	59.3
Cc1csc(C(C)(C)NC(=O)c2cccc(NCc3nnc(-c4ccncn4)n3C)c2)n1	59.7
CC[C@H](NC(=O)c1cccc(NCc2nnc(-c3ccncn3)n2C)c1)c1ccccn1	94.3
Cn1c(CNc2cccc(C(=O)NCc3ncccc3F)c2)nnc1-c1ccncn1	61.7
COCC(NC(=O)c1cccc(NCc2nnc(-c3ccncn3)n2C)c1)c1ccccc1 (stereo not shown)	84.1
Cn1c(CNc2cccc(C(=O)NCc3cnccc3C(F)(F)F)c2)nnc1-c1ccncn1	35.8
COCc1cccc(CNC(=O)c2cccc(NCc3nnc(-c4ccncn4)n3C)c2)c1	69.7
Cn1c(CNc2cccc(C(=O)NCc3ccccc3-n3cncn3)c2)nnc1-c1ccncn1	73.1
O=C(N[C@H]1COCc2c(Cl)cccc21)c1cccc(NCc2nnc(-c3ccncc3)n2CCO)c1	3.17
O=C(N[C@@H]1COc2cc(F)ccc21)c1cccc(NCc2nnc(-c3ccncc3)n2CCO)c1	63.3
O=C(N[C@H]1COc2cc(F)ccc21)c1cccc(NCc2nnc(-c3ccncc3)n2CCO)c1	48.1
Cn1c(CNc2cccc(C(=O)N[C@@H]3COCc4ccccc43)c2)nnc1-c1ccncc1F	5.55
Cn1c(CNc2cccc(C(=O)N[C@H]3COCc4ccccc43)c2)nnc1-c1ccncc1F	57.5
Cn1c(CNc2cccc(C(=O)N[C@@H]3COCc4c(Cl)cccc43)c2)nnc1-c1ccncc1F	80.1
Cn1c(CNc2cccc(C(=O)N[C@H]3COCc4c(Cl)cccc43)c2)nnc1-c1ccncc1F	42.1
CNS(=O)(=O)c1cccc(F)c1CNC(=O)c1cccc(NCc2nnc(-c3ccncc3F)n2C)c1	60
Cn1c(CNc2cccc(C(=O)N[C@@H]3COc4cc(F)ccc43)c2)nnc1-c1ccncc1F	34.6
Cn1c(CNc2cccc(C(=O)N[C@H]3COc4cc(F)ccc43)c2)nnc1-c1ccncc1F	46.7
CNS(=O)(=O)c1cccc(F)c1CNC(=O)c1cccc(NCc2nnc(-c3ccncc3)n2C)c1	68.6
Cn1c(CNc2cccc(C(=O)N[C@H]3CCOc4c(Cl)cccc43)c2)nnc1-c1ccncc1	65.3
Cn1c(CNc2cccc(C(=O)N[C@@H]3CCOc4c(Cl)cccc43)c2)nnc1-c1ccncc1	52.7

SMILES	D: 7-day proliferation assay: % Minimum GeoMean (%)
Cn1c(CNc2cccc(C(=O)N[C@H]3COc4cc(F)ccc43)c2)nnc1-c1ccncc1	34.7
COc1cccc([C@@H](C)NC(=O)c2cccc(NCc3nnc(-c4ccncc4)n3C)c2)c1	58.6
C[C@H](NC(=O)c1cccc(NCc2nnc(-c3ccncc3)n2C)c1)c1ncccc1Cl	65.4
C[C@@H](NC(=O)c1cccc(NCc2nnc(-c3ccncc3)n2C)c1)c1ncccc1Cl	45.5
COc1ncc(Br)cc1CNC(=O)c1cccc(NCc2nnc(-c3ccncc3)[nH]2)c1	5.28
Cc1ccc(C#N)cc1CNC(=O)c1cccc(NCc2nnc(-c3ccncn3)n2CCO)c1	63.6
COc1ncc(Br)cc1CNC(=O)c1cccc(NCc2nnc(-c3ccncn3)n2CCO)c1	56.7
Cc1ccc(C#N)cc1CNC(=O)c1cccc(NCc2nnc(-c3ccncc3)n2CCO)c1	69.5
COc1ncc(Br)cc1CNC(=O)c1cccc(NCc2nnc(-c3ccncc3)n2CCO)c1	50.5
COc1cccc([C@H](C)NC(=O)c2cccc(NCc3nnc(-c4ccncc4)[nH]3)c2)c1	7.94
Cn1c(CNc2cccc(C(=O)N[C@@H]3CCOc4ccccc43)c2)nnc1-c1ccncn1	73.9
Cc1cccnc1[C@H](C)NC(=O)c1cccc(NCc2nnc(-c3ccncn3)n2C)c1	51.8
Cc1cccnc1[C@@H](C)NC(=O)c1cccc(NCc2nnc(-c3ccncn3)n2C)c1	58.9
C[C@H](NC(=O)c1cccc(NCc2nnc(-c3ccncn3)n2C)c1)c1ncccc1Cl	61.9
CN1CC[C@@H](NC(=O)c2cccc(NCc3nnc(-c4ccncn4)n3C)c2)c2ccccc21	16
Cn1c(CNc2cccc(C(=O)N[C@@H]3CCOc4c(Cl)cccc43)c2)nnc1-c1ccncn1	49.0
Cn1c(CNc2cccc(C(=O)N[C@H]3CCOc4c(Cl)cccc43)c2)nnc1-c1ccncn1	45.9
Cn1c(CNc2cccc(C(=O)N[C@H]3COCc4ccccc43)c2)nnc1-c1ccncn1	38.2
Cn1c(CNc2cccc(C(=O)NC3COc4cc(F)ccc43)c2)nnc1-c1ccncn1 (stereo not shown)	52.1
COc1ccc(F)c(CNC(=O)c2cccc(NCc3nnc(-c4ccncn4)n3C)c2)c1	56.9
C#Cc1ccc(CNC(=O)c2cccc(NCc3nnc(-c4ccncn4)n3C)c2)c(F)c1	51.3
Cn1c(CNc2cccc(C(=O)NC3CCS(=O)(=O)c4ccccc43)c2)nnc1-c1ccncn1 (stereo not shown)	53.6
CN1Cc2ccccc2C(NC(=O)c2cccc(NCc3nnc(-c4ccncn4)n3C)c2)C1=O (stereo not shown)	53.9
Cn1c(CNc2cccc(C(=O)NCc3cccc4c3NC(=O)CO4)c2)nnc1-c1ccncn1	25.7

SMILES	D: 7-day proliferation assay: % Minimum GeoMean (%)
Cn1c(CNc2cccc(C(=O)NC3CCS(=O)(=O)c4ccc(F)cc43)c2)nnc1-c1ccncn1 (stereo not shown)	47.4
COc1ncc(Br)cc1CNC(=O)c1cccc(NCc2nnc(-c3ccncn3)n2C)c1	52.7
Cc1cc(C)n(C)c(=O)c1CNC(=O)c1cccc(NCc2nnc(-c3ccncn3)n2C)c1	40.1
Cn1c(CNc2cccc(C(=O)NCc3ccccc3S(=O)(=O)N3CCCC3)c2)nnc1-c1ccncn1	49.1
Cn1c(CNc2cccc(C(=O)NCc3cccnc3Cl)c2)nnc1-c1ccncn1	70
Cc1cc(C)c(CNC(=O)c2cccc(NCc3nnc(-c4ccncn4)n3C)c2)cn1	48.9
CC(NC(=O)c1cccc(NCc2nnc(-c3ccncn3)n2C)c1)c1ncccc1F (stereo not shown)	57.7
C#Cc1ccccc1CNC(=O)c1cccc(NCc2nnc(-c3ccncn3)n2C)c1	65.6
Cc1nccnc1C(C)NC(=O)c1cccc(NCc2nnc(-c3ccncn3)n2C)c1 (stereo not shown)	48.2
Cc1nncc(CNC(=O)c2cccc(NCc3nnc(-c4ccncn4)n3C)c2)c1C	64.9
Cn1c(CNc2cccc(C(=O)NCc3cc(C#N)ccc3F)c2)nnc1-c1ccncn1	51.0
Cn1c(CNc2cccc(C(=O)NC3COc4ccc(F)cc43)c2)nnc1-c1ccncn1 (stereo not shown)	55.1
CN(C)c1ccccc1CNC(=O)c1cccc(NCc2nnc(-c3ccncn3)n2C)c1	50.9
Cn1c(CNc2cccc(C(=O)NCc3cccc4c3OCO4)c2)nnc1-c1ccncn1	65.8
COc1nc(C)ccc1CNC(=O)c1cccc(NCc2nnc(-c3ccncn3)n2C)c1	70
COc1cc(F)ccc1CNC(=O)c1cccc(NCc2nnc(-c3ccncn3)n2C)c1	17.2
Cn1c(CNc2cccc(C(=O)NC3CC(O)c4ccccc43)c2)nnc1-c1ccncn1 (stereo not shown)	77.2
COc1ccc(C)nc1CNC(=O)c1cccc(NCc2nnc(-c3ccncn3)n2C)c1	54.8
Cn1c(CNc2cccc(C(=O)NCc3cncc4c3CCC4)c2)nnc1-c1ccncn1	10.9
Cn1c(CNc2cccc(C(=O)NCc3ccccc3OCCO)c2)nnc1-c1ccncn1	67.7
Cn1c(CNc2cccc(C(=O)N[C@H](CO)c3cc(F)ccc3F)c2)nnc1-c1ccncn1	65.8
COc1ccccc1C(CO)NC(=O)c1cccc(NCc2nnc(-c3ccncn3)n2C)c1 (stereo not shown)	62.3
